# Reference: PubChem BioAssay AID488969 (Vanderbilt High Throughput Screening Facility, 2010)
# Over roughly 110,000 compounds, “z-score” has its median near -0.1; the highest 2% begin near 2. This is one part of the list. Active and inactive are the calls of the source.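 Rule for the calls: active = z-score in the third read window above 3 or below -3; inactive = the rest.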
# Molecular target: Metabotropic glutamate receptor 8 (Rattus norvegicus) (UniProt P70579)
# Assay: rat mGluR8 modulators via GIRK flux, primary screen, cell-based, thallium flux, HTS (AID 488969)
# Conditions: HEK293 rat mGluR8, GIRK (G protein-gated inwardly rectifying potassium channel) thallium flux, FluoZin2; at 10 µM; stronger effect = higher value; submaximal glutamate (EC20) added with thallium
# Sequence of UniProt P70579 (P70579 whole entry, looked up): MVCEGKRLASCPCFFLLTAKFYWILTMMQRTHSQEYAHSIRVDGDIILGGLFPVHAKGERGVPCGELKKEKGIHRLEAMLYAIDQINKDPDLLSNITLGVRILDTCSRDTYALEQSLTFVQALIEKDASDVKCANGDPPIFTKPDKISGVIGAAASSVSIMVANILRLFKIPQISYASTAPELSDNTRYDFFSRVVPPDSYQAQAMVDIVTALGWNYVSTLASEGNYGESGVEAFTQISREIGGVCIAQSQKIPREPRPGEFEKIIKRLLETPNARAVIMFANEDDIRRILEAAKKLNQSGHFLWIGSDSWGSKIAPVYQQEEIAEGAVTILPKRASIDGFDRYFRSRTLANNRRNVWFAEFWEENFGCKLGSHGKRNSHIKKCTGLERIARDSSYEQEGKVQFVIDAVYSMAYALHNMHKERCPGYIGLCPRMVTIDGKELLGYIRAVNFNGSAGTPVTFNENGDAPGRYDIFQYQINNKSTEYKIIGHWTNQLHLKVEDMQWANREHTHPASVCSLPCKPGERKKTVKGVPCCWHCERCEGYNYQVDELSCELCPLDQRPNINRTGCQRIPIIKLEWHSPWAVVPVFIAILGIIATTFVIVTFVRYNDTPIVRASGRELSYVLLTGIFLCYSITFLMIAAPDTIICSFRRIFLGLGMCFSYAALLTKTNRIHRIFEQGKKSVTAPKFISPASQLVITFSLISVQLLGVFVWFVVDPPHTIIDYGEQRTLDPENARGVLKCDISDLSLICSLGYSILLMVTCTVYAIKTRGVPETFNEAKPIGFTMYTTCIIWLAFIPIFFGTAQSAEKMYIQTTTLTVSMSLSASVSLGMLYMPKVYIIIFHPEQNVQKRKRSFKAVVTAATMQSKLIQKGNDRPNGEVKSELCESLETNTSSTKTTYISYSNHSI
row,Compound,z-score
1,O=C(CSc1nnnn1-c1cccc(Cl)c1)Nc1ccc2c(c1)CCC2,-0.0138
2,N#Cc1c(NC(=O)CN2CCCCC2)sc2c1CCC2,0.71
3,O=C(Cc1ccccc1)Nc1ccccc1Sc1ccccc1,-0.00777
4,O=C(CNC(=S)N(Cc1ccccc1)Cc1cccnc1)NC1CC1,0.186
5,CC1(C)CC(=O)C=C(Nc2ccc(S(N)(=O)=O)cc2)C1,-0.0534
6,COCCn1c(C)cc(C(=O)COC(=O)c2ccc(N3CCCC3=O)cc2)c1C,-0.104
7,COc1cc(C2NC(=S)NC(C)=C2C(=O)c2ccccc2)ccc1O (stereo unspecified),-0.116
8,O=C1CNC(=O)/C1=C\c1ccc(O)cc1,0.091
9,COc1cccc(-c2nnn(CCC(=O)O)n2)c1,-0.297
10,Cc1ccc(SCCC(=O)OCC(=O)Nc2ncc(Cl)cc2Cl)cc1,0.0165
11,CN(C(=O)c1ccccc1NC(=O)C(F)(F)F)c1ccccc1,-0.0699
12,COc1cccc(/C=N/NC(=O)CN(CCc2ccccc2)S(=O)(=O)c2ccc(NC(C)=O)cc2)c1,-0.0629
13,CC(C)Sc1nc(N2CCOCC2)c2c(c1C#N)CC(C)(C)N(C)C2,-0.402
14,COC(=O)C1C(O)=C(C=Nc2ccc(N)cc2)C(=O)CC1(C)C (stereo unspecified),-0.549
15,CC(=O)c1cccc(NC(=O)C2CCCCC2)c1,-0.342
16,CCCCC(=O)c1ccc(O)cc1O,0.287
17,COCCNC(=O)CNC(=O)c1nn(-c2ccc(OC)c(Cl)c2)c(=O)c2ccccc12,-0.158
18,Cc1ccc(NC(=O)CCC(=O)NNC(=O)COc2ccccc2)cc1C,0.0392
19,O=C(Nc1ccc(Cl)cc1)NC1CCCCC1Cc1ccco1 (stereo unspecified),active: 7.39
20,O=C(CCCOc1ccccc1)Nc1ccc2c(c1)OCCO2,0.0498
21,O=S1(=O)CCN2C(c3ccco3)=CSC2=N1,0.0459
22,O=C(Cc1cccs1)Nc1ccc(-c2nc3ccccc3[nH]2)cc1,-0.182
23,Cc1cc(C)cc(NC(=O)Cn2c(=O)oc3cc(S(=O)(=O)N4CCC(C)CC4)ccc32)c1,-0.0288
24,Cc1cc(=O)oc(C)c1C(=O)NCc1cccnc1,-0.117

row,Compound,z-score
1,CCC(=O)Nc1nnc(Sc2ccc(N(C)C)cc2)s1,1.43
2,COC(=O)c1sccc1-c1ccc(C(=O)Nc2cccnc2)o1,-1.4
3,Cc1ccc(/C=N/n2c(COc3ccccc3)n[nH]c2=S)s1,active: 3.29
4,Cc1cccc(NCN2C(=O)c3ccccc3C2=O)c1,0.0948
5,O=C(CSc1nnc2c(Cl)cc(C(F)(F)F)cn12)NCc1ccc(F)cc1,-0.0106
6,O=C(Nc1nccs1)c1sc2cc(Cl)ccc2c1Cl,1.87
7,CCCNC(=O)CN(Cc1ccccc1F)S(=O)(=O)c1ccc(C)cc1,-0.207
8,O=C(N/N=C/c1c(Cl)cccc1Cl)c1cccc(F)c1,active: 3.05
9,Cc1ccc(C)c(-n2c(CNC(=O)c3ccco3)nnc2SCC(=O)N2CCc3ccccc32)c1,0.53
10,OC(CNCc1ccccc1)Cn1ccc2ccccc21 (stereo unspecified),-0.0495
11,O=C(COC(=O)c1cnccn1)c1ccc2c(c1)CCCC2,0.408
12,C=CCOc1cccc(C2/C(=C(/O)c3ccc(F)cc3)C(=O)C(=O)N2CCN2CCOCC2)c1 (stereo unspecified),-0.175
13,COc1ccc([N+](=O)[O-])cc1/C=N/NC(=O)CNC(=O)c1cccc(F)c1,-0.267
14,CCOC(=O)COc1c(Cl)cc(C2NC(=S)NC(c3ccccc3)=C2C(C)=O)cc1OCC (stereo unspecified),-0.187
15,CS(=O)(=O)N1CCN(C(=O)c2ccc(-c3ccccc3)cc2)CC1,-0.241
16,Cc1ccc(C(=O)CN(C(=O)c2ccc(Cl)c(Cl)c2)N2C(=O)C3CCCCC3C2=O)cc1C (stereo unspecified),-0.207
17,Cc1ccc(NC(=O)CSC2=NCCN2)cc1,0.214
18,OCCCc1nc2n(n1)C(c1ccccc1)C=C(c1ccc(F)cc1)N2 (stereo unspecified),-1.33
19,Cc1csc(SCC(=O)Nc2c(C)n(C)n(-c3ccccc3)c2=O)n1,-0.0217
20,CCOC(=O)c1[nH]c(C)c(C(=O)NC(C)CC)c1C (stereo unspecified),-0.559
21,CS(=O)(=O)Nc1cccc(C2=NN(S(C)(=O)=O)C(c3ccc4c(c3)OCO4)C2)c1 (stereo unspecified),-0.241
22,O=C(CN(CC1CCCO1)C(=O)CNS(=O)(=O)c1ccccc1)NCc1ccccc1 (stereo unspecified),-0.25
23,Cc1cc(-c2ccc(Cl)s2)n[nH]1,0.0461
24,COc1cccc(NC(=O)C2CCCN2C(=O)Nc2cccc(F)c2)c1 (stereo unspecified),1.45

row,Compound,z-score
1,NC(=O)c1ccsc1NC(=O)c1ccc(S(=O)(=O)N2CCCCC2)cc1,-0.52
2,CCC(NC(=O)N(Cc1ccccc1)Cc1ccc2c(c1)OCO2)(C(F)(F)F)C(F)(F)F,-0.904
3,COc1cc(/C=C/C(=O)OCC(=O)NC2CCS(=O)(=O)C2)ccc1O (stereo unspecified),-0.135
4,COc1ccccc1CC(=O)Nc1cc2oc3ccccc3c2cc1OC,-0.189
5,CCOC(=O)c1nnn(-c2nonc2N)c1-c1ccccc1,0.111
6,CC(=O)Nc1ccc(S(=O)(=O)N[C@@H](C)C(=O)OCc2ccc(Cl)cc2)cc1,-0.102
7,O=C(Nc1ccc(Cl)cc1)C1=Cc2cc(Cl)ccc2OC1,-0.109
8,CCCC(c1nnnn1C1CCCC1)N1CCN(c2ccccc2F)CC1 (stereo unspecified),-0.889
9,Cn1c(-c2ccc(C(C)(C)C)cc2)n[nH]c1=S,1.92
10,Cc1nc(SC2C=CS(=O)(=O)C2)n[nH]1 (stereo unspecified),0.0743
11,Nc1c(C(=O)NCC2CCCO2)sc2nc3c(c(-c4ccco4)c12)CC/C3=C\c1ccco1 (stereo unspecified),-0.197
12,Cn1c(=O)c2c(nc(Cl)n2Cc2ccc(Cl)c(Cl)c2)n(C)c1=O,-0.173
13,COc1ccc(C)cc1S(=O)(=O)N(CC(=O)Nc1cc([N+](=O)[O-])ccc1C)c1ccc(C)c(C)c1,-0.906
14,Nc1nc(CSc2ncccn2)nc(Nc2ccccc2)n1,-0.0959
15,Cc1ccc2c(c1)cc(CN(Cc1cccnc1)C(=O)NCc1ccccc1)c1nnnn12,-0.309
16,COc1cc2c(cc1NC(=O)COC(=O)[C@@H](NS(=O)(=O)c1ccccc1)C(C)C)oc1ccccc12,0.22
17,CCSc1nc2cc(OC)c(OC)cc2c(=O)n1CC,-0.49
18,Cc1nn(-c2ccc3nnc(Br)n3n2)c(C)c1Br,-0.48
19,CCOC(=O)c1[nH]c(C)c(C(=O)NC)c1C,0.651
20,O=C(Cn1cc(C(=O)c2cccs2)c2ccccc21)NC1CCCCC1,-2.37
21,Cc1ccc2nc(SCC(=O)c3ccc4c(c3)OCO4)[nH]c2c1,-0.84
22,COC(=O)c1cc2ccsc2n1Cc1cccc(F)c1,-0.209
23,CCOC(=O)c1sc(NC(=O)c2ccc(S(=O)(=O)N(C)C)cc2)cc1C,-0.519
